# According to PubChem BioAssay (NCI):
# Several values for one entry are separate records, joined by “and”; a condition that tells them apart may be missing. Equal entries are not always repeated.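 Results reflect a 48-hour exposure of cells in 96-well plates to compound at five concentrations. At the GI50, growth is halved. TGI denotes the concentration required for complete inhibition of growth.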
# Test system: NCI-H322M lung
# Assay: NCI anticancer screen, dose series, 48 h
SMILES,TGI,GI50
COC(=O)c1cc2c(cc1CC1Cc3cc4c(cc3C1)CCC4)CCC2,> 100 µM,
COc1cc(-c2cc(=O)c3cc4c(=O)cc(-c5cc(OC)c(OC)c(OC)c5)oc4cc3o2)cc(OC)c1OC,> 100 µM,
COc1cc2c(Nc3cc(Cl)c(OC)c(Cl)c3)c(C#N)cnc2cc1OCCCN1CCN(C)CC1,11.7 µM,0.394 µM
C[C@@H]1S[C@H](c2ccccc2F)N2Cc3ccccc3N=C12,> 100 µM,
COC(=O)/C(=N/O)C(C(=O)C=C(C)C)C(=O)C(=O)Nc1nc2ccc([N+](=O)[O-])cc2s1 (stereo unspecified),> 100 µM,
CCN(CC)CCCNC(=O)c1ccc([N+](=O)[O-])cc1O,> 100 µM,
O=C(NCCCN(CCCCN(CCCNC(=O)C(F)(F)F)Cc1ccc2ccccc2c1)Cc1ccc2ccccc2c1)C(F)(F)F,> 100 µM,
CC(=O)OCC1OC(n2cc(I)c(=O)[nH]c2=O)C(OC(C)=O)C(OC(C)=O)C1OC(C)=O (stereo unspecified),> 100 µM,
CCc1c[n+]([O-])c(C)cc1[N+](=O)[O-],> 100 µM,
CC(O)CCCOC(c1ccccc1)(c1ccccc1)c1ccccc1 (stereo unspecified),27.7 µM,
COc1cc2c(/C=N\N=C(N)N)c[nH]c2cc1C,29.4 µM,11.2 µM
Cc1cc2c([N+](=O)[O-])cc3c(c2o1)C(=O)C=CC3=O,39.5 µM,
N#CC1=C(c2ccccc2)NNC(c2ccc(Cl)cc2)CC1=O (stereo unspecified),> 100 µM,
CC(C)=CCC/C(C)=C/COC(C)(C)C1=CCC(C)CC1 (stereo unspecified) (tested in a mixture with another compound),> 100 µM,
N=C(N)c1ccc(-c2ccc(-c3cccs3)s2)cc1,1.66 µM,0.255 µM
O=C1NCC(NC(=O)C(F)(F)F)c2c(Br)sc(Br)c21 (stereo unspecified),> 100 µM,
CCNC(=O)/C(=C/c1ccc(OC)cc1)c1cc(OC)c(OC)c(OC)c1,> 100 µM,
NC(CC1=CS(=O)(=O)c2ccc(Cl)cc21)C(=O)O (stereo unspecified),> 100 µM,
CCOC(=O)c1c(-c2ccccc2)c(-c2ccccc2)cn1C,> 10 µM,
CCOCN1COCN(C)C1=O,> 100 µM,
COC(=O)c1cc2c(o1)-c1nccc3c1c(nc1ccccc13)C2=O,25.6 µM,12.4 µM
COc1cc2cc(Oc3ccc(NC(=O)c4cc(C(F)(F)F)cc(C(F)(F)F)c4)cc3)c(C)nc2cc1OC,> 50 µM,> 50 µM
CCC(C)(O)c1cnc(CC(C)C)c(=O)n1O (stereo unspecified),> 100 µM,
ClC(Cl)=C1C(=C(Cl)Cl)C(Cl)(Cl)C1(Cl)Cl,27.3 µM,
Clc1ccc(CSCCc2ccncc2)cc1Cl,86.3 µM,
Cn1c(=O)nc2n(-c3cc(C(F)(F)F)cc(C(F)(F)F)c3)c3ccccc3nc-2c1=O,> 100 µM,
Cn1c(=O)c2c(nc(C(=N)SCC(=O)O)n2C)n(C)c1=O,> 100 µM,

SMILES,TGI,GI50
COc1ccc(-c2ccc3c(N4CCOC[C@@H]4C)nc(N4CCOC[C@@H]4C)nc3n2)cc1CO,0.742 µM and 5.03 µM,0.00516 µM and 0.0202 µM
Cc1cc(N/N=C/c2ccccn2)nc2ccccc12,14.7 µM,0.375 µM
O=C(NCc1ccc(Cn2c(=O)sn(-c3ccccc3)c2=O)cc1)OCc1ccc2cccc(O)c2n1,3.26 µM,1.6 µM
CCN(CC)CCCCCCNc1cccc2cc(Br)cnc12,23.3 µM,10.7 µM
O=C(CNc1c(Cl)cccc1Cl)NC1C=Cc2ccc(S(=O)(=O)Nc3c(Cl)cccc3Cl)cc2C1=O (stereo unspecified),> 100 µM,
CCOP(=O)(OCC)C(C(=O)OC)C(=O)C(=O)Nc1ccc(Cl)cc1Cl (stereo unspecified),> 100 µM,
COc1ccc(/C=C2\C[C@H]3[C@@H]4CCC5=C/C(=N/O)CC[C@]5(C)[C@H]4CC[C@]3(C)\C2=N\O)cc1OC,> 100 µM,
CC[n+]1[b-](C(C)(C)C)n(/N=C/C(C)(C)C)[b-](C(C)(C)C)[n+]1CC,> 100 µM,
NNCCc1ccc(NC(=O)CCCc2ccc(C(=O)Nc3ccccc3N)cc2)cc1,> 100 µM,12.1 µM
Cc1cc(Nc2nc(-c3cn(-c4ccc(Cl)cc4)nn3)nc3ccccc23)n[nH]1,> 50 µM,6.99 µM
Cc1ccc(C)c(N2C/C(=N\NC(=O)CC#N)C(c3nc4ccccc4s3)C(=O)C2=O)c1 (stereo unspecified),> 100 µM,
Nc1nc(N)c(N=O)c(Nc2ccc(Br)cc2)n1,56.7 µM,
O=C1c2ccccc2-c2c1c1ccccc1c(=O)n2CCN1CCNCC1,13.5 µM,3.7 µM
Nc1ccccc1O.O.O=C(O)C1[O][Sb][O]C1C(=O)O (stereo unspecified),> 100 µM,97.3 µM
CCCCNC(=S)N/N=C/c1cccc(C)n1,> 100 µM,
CSc1c(C#N)c(N)n(-c2ccc(C)cc2)c(=O)c1C#N,> 100 µM,
COc1ccc(-c2c3c([nH]c(=S)c2C#N)CC(C)(C)CC3=O)cc1,> 100 µM,
CN(C)C(=S)SSC(=S)N(C)C,70.5 µM and > 100 µM and > 61.8 µM,23.5 µM and 58.5 µM and 28.3 µM
C=Cc1ccc(C)[n+](C[Si](C)(C)O[Si](C)(C)C[n+]2cc(C=C)ccc2C)c1,> 100 µM,
COc1ccc(S(=O)(=O)N2C(=O)CCC2C(=O)NN)cc1 (stereo unspecified),> 100 µM,
CC(C)c1[nH]nc2c1N=C(c1ccccc1Cl)c1cc([N+](=O)[O-])ccc1N2,> 25 µM,9.97 µM
CC(=O)O[C@H]1C(=O)[C@@]2(C)[C@H]([C@H](OC(=O)c3ccc(F)cc3)[C@]3(O)C[C@H](OC(=O)[C@H](O)[C@@H](NC(=O)c4ccccc4)c4ccccc4)C(C)=C1C3(C)C)[C@]1(OC(C)=O)CO[C@@H]1C[C@@H]2O,> 25 µM,
CCN1c2ccccc2-c2c3c1cc(C)cc3c1ccccc1[n+]2CC,5.56 µM,
CC(C)[C@H](O)C(=O)N[C@@H](C)C(=O)N[C@@H]1C(=O)N(C)CCc2ccccc21,> 100 µM,> 100 µM
CCOC(=O)C1(C(=O)OCC)COS(=O)OC1,> 100 µM,
CCCC(=O)C1=C(O)C(Cc2c(O)c(C)c(O)c(C(=O)CCC)c2O)=C(O)C(C)(C)C1=O,> 50 µM,
CCCc1cc(=O)n2c(C(=O)Nc3ccc(Cl)cc3C)c(C(=O)Nc3ccc(F)cc3)sc2n1,> 150 µM,46.8 µM

SMILES,TGI,GI50
CC(C)CC(C/C=C1/CC(CO)(COC(=O)C(C)(C)C)OC1=O)CC(C)C (stereo unspecified),21.5 µM and 4.9 µM,
C[C@@H](Cl)[C@H]1CCCN(Cc2ccc(Br)cc2)C1,> 12.5 µM,
COC(=O)C1=COC(C)C2CN3CCc4c([nH]c5ccccc45)C3CC12 (stereo unspecified),> 100 µM,46.9 µM and > 100 µM
CCC/C=C/C=C/C1CC(O)C(O)C(=O)C1CO (stereo unspecified),> 100 µM,
CC(C(=O)N1C(=O)N(C(=O)C(C)C(O)c2ccccc2)C2CCCCC21)C(O)c1ccccc1 (stereo unspecified),> 100 µM,
Cn1cc(-c2csc(-c3cn(CCCCN4CCCCC4)c4ccccc34)n2)c2cccnc21,3.1 µM,1.71 µM
CSC(=Nc1ccccc1)N(c1ccccc1)c1nc(=[N+](C)C)ss1,27.5 µM,
O=C(CN(c1ccccc1)c1ccccc1)N1c2ccccc2C2C=CC=CC21 (stereo unspecified),> 55.1 µM,
Oc1[nH]c2ccc(Br)cc2c1N=NC(=S)Nc1ccc(F)cc1,> 100 µM,
CC12CCC3C(CCC4CC(OC(=O)Cc5ccc(N(CCCl)CCCl)cc5)CCC43C)C1CCC(=O)N2 (stereo unspecified),32.3 µM,
C=C1c2cc3c(cc2CC12Cc1cc4c(cc1C2=O)CCC4)CCC3 (stereo unspecified),> 100 µM,
CCOC(=O)c1nc2ccc(C(F)(F)F)cc2nc1Oc1ccc(C#N)cc1,> 100 µM,
O=[N+]([O-])c1ccc(/C=C/c2cc(-c3ccccc3)nc3ccc4ccccc4c23)cc1,> 100 µM,
S=C(/N=c1\sc(Nc2ccc(Cl)cc2)nc2sc3c(c12)CCN(N1CCc2c(sc4nc(Nc5ccc(Cl)cc5)s/c(=N\C(=S)Nc5ccc(Cl)cc5)c24)C1)C3)Nc1ccc(Cl)cc1,47.5 µM,
CCC1CN2CCc3cc(OC)c(OC)cc3C2CC1CC1c2cc(OC)c(OC)cc2CCN1C(=O)C1CCCN1 (stereo unspecified),> 100 µM,
O=C1Sc2ccccc2C(=O)N2CSCC12 (stereo unspecified),> 100 µM,
COC(=O)CN1c2nc(C#N)c(C#N)nc2N(CC(=O)OC)c2nc(C#N)c(C#N)nc21,30.2 µM,
COc1cc2c(cc1OC)[C@H]1CN3CCC[C@H]3C=C1c1ccc(OC)c(O)c1-2,0.00175 µM,
O=C(Nc1cc(Cl)ccc1O)c1ccc(Nc2ccnc(C(F)(F)F)c2)cc1,> 100 µM,2.87 µM
COc1ccc(-c2cnnn2-c2nonc2-n2cccc2)cc1,> 100 µM,0.631 µM
CC(=O)O/N=C/c1c2ccccc2cc2ccccc12,> 100 µM,
Cc1ccc(CC[P+](=O)CCc2ccc(C)nc2)cn1,> 100 µM,
COc1cc2nc(-c3cccs3)oc(=O)c2cc1OC,> 100 µM,
COc1ccc(-c2nc(-c3cc(OC)cc(OC)c3)[nH]c2-c2ccc(OC)cc2)cc1,> 100 µM,> 100 µM
Cc1ccc([N+](=O)[O-])cc1N=NC(=O)NNc1cc([N+](=O)[O-])ccc1C,> 100 µM,
